The whole screen tested about 48,000 compounds, of which about 450 (0.94%) were called active. Another 19% or so got no clear call; they are omitted. Calls follow the shape of the dose curve; as a rule, active = well fitted inhibition curve with a large enough effect; inconclusive = small, poorly fitted or top-dose-only effect; inactive = no such curve, though single readings can be large or run the other way. Some of the results follow.

A short description of the assay: Primary qHTS for Identification of Small Molecule Inhibitors of Huntingtin Promoter Activity. Also: nearly all actives have a fitted effect of over 50% in size. To be noted: HEK293 HTT promoter firefly luciferase reporter (activity 0% = vehicle and -100% = no light), 24 h; series mostly up to 57.5 µM; activity change, negative = inhibition: at the top concentration. In a few lines: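 HEK293 luciferase promoter-reporter cells (2,500/well) plated 24 h, then compounds added at up to 57.5 uM final for 24 h at 37 °C. Firefly luminescence by Dual-Glo, normalized to vehicle (0%) and zero RLU (-100%).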
In general terms: In qHTS, concentration-response curves come from the screen itself.
With `COc1cccc(CNC(=O)C(C)n2ncn3cccc3c2=O)c1OC` (configuration not stated), the “activity change, negative = inhibition” value was inactive: -3.44%. With `O=C(Cn1c2ncccc2c(=O)n1-c1ccccc1)NCc1ccccc1Cl`, the “activity change, negative = inhibition” value was inactive: -4.7%. Consider `CCOc1ccc(-c2cn(-c3ccc(C)cc3)c(SCC(=O)Nc3ccc(C)cc3)n2)cc1`, for which the “activity change, negative = inhibition” value was inactive: -23.3%. Consider `Cc1ccc(NC(=O)Cc2coc3ccc(C(C)C)cc23)c(C)c1`, for which the “activity change, negative = inhibition” value is inactive: -23.9%. Take `COc1cccc(-n2c(SCC(=O)Nc3cccc(Cl)c3)nc3c(oc4ccccc43)c2=O)c1`: the “activity change, negative = inhibition” value is inactive: -19%. Regarding `Cc1c(NC(=O)CC(C)C)cccc1-c1nc2cccnc2s1`, the “activity change, negative = inhibition” value is inactive: -28.7%. Regarding `COc1ccccc1OC(=O)Oc1ccccc1OC`, the “activity change, negative = inhibition” value was inactive: 1.87%. For `COc1ccc(/C=C\C(=O)NC2CC(=O)N(c3ccc(F)cc3)C2)cc1OC` (configuration not stated) the value was inactive: 8.35%; for `CS(=O)(=O)c1oc(-c2ccc(F)cc2)nc1S(=O)(=O)c1ccc(Cl)cc1`, inactive: 1.28%. For the compound `O=C(CSc1nc2c(sc3ccccc32)c(=O)n1CCCC(=O)NC1CCCC1)Nc1ccc(F)cc1`, the “activity change, negative = inhibition” value was inactive: -14%. In the case of `O=C(NCc1ccc(F)cc1)C1CCCN(c2ncnc3onc(-c4ccc(F)cc4)c23)C1` (configuration not stated), the “activity change, negative = inhibition” value is inactive: -21.9%. Take `CCOC(=O)CNC(=O)c1ccc(-c2nn(C)c(=O)c3ccccc23)cc1`: the “activity change, negative = inhibition” value is inactive: 30.1%. On to `CC(=O)Nc1ccc(C(=O)O)cc1`, for which the “activity change, negative = inhibition” value was inactive: 8.68%. For the compound `CCc1ccc(NCc2cc3ccc(OC)cc3n(CC(=O)Nc3ccc(C(C)C)cc3)c2=O)cc1`, the “activity change, negative = inhibition” value is inactive: -31.6%. With `Cc1ccc(NC(=O)Cn2nnc(-c3nc(-c4ccncc4)no3)c2N)c(C)c1`, the “activity change, negative = inhibition” value is inactive: 0.278%.

For `CC(NC(=O)C1CCN(C(=O)c2ccc(-n3ccc4ccccc43)s2)CC1)c1ccccc1` (configuration not stated), the “activity change, negative = inhibition” value was inactive: -15.2%.

`COc1ccccc1NC(=O)C1=C(C)Nc2nc(SCc3ccc(Cl)cc3)nn2C1c1ccccc1Cl` (configuration not stated): the “activity change, negative = inhibition” value is inactive: -17.3%. Regarding `CCOc1ccc(OC(=O)c2cn(-c3cccc(OC)c3)c(=O)c3ccccc23)cc1`, the “activity change, negative = inhibition” value was inactive: -17.2%. As for `CC1CCN(C(=O)c2cc3c(=O)n(C)c4ccccc4c3s2)CC1`, the “activity change, negative = inhibition” value is inactive: 17.6%. Turning to `CCOC(=O)c1c(NC(C)=O)c2c3c(sc2n1Cc1ccc(Cl)cc1)CCCC3`, the “activity change, negative = inhibition” value was inactive: -8.87%. With `COc1cc(C2NC(=O)N(C)C3=C2C(=O)N(c2cccc(Cl)c2)C3)ccc1O` (configuration not stated), the “activity change, negative = inhibition” value is inactive: -0.639%.

`CC(=O)c1cccc(NC(=O)C2=CC(c3ccc4c(c3)OCO4)=NS(=O)(=O)N2C)c1`: the “activity change, negative = inhibition” value was inactive: -29.4%.

For the compound `Fc1ccccc1-n1ncc2c1ncn1nc(-c3ccccc3Cl)nc21`, the “activity change, negative = inhibition” value is inactive: 62.6%.

In the case of `Cc1cccc(CNC(=O)C(=O)Nc2ccccc2C)c1`, the “activity change, negative = inhibition” value is inactive: 22.4%. In the case of `CC1CCCCN1CCCNC(=O)c1[nH]c2ccccc2c1Sc1ccc(Cl)cc1` (configuration not stated), the “activity change, negative = inhibition” value was inactive: -24.3%.

For the compound `Cc1ccc(CNC(=O)c2ccc(CSCc3ccccc3Cl)o2)cc1`, the “activity change, negative = inhibition” value was inactive: -7.49%. With `Cc1ccc(S(=O)(=O)NCC(c2ccc(N(C)C)cc2)N2CCc3ccccc32)cc1C` (configuration not stated), the “activity change, negative = inhibition” value is inactive: -22.8%.

As for `Cc1cccc(C)c1NC(=O)CSc1nc2ncccc2o1`, the “activity change, negative = inhibition” value was inactive: -1.64%.

Regarding `CC(=O)N1CCc2cc(CNC(=O)Nc3cc(Cl)ccc3C)ccc21`, the “activity change, negative = inhibition” value was inactive: -25.6%. For the compound `COc1ccc(Cn2c(CCC(=O)Nc3cccc(OC)c3)nc3cccnc32)cc1`, the “activity change, negative = inhibition” value is inactive: -25.1%. Take `CCc1ccc(CNC(=O)C2CCN(c3nc4ccccc4nc3C(F)(F)F)CC2)cc1`: the “activity change, negative = inhibition” value is inactive: -4.6%. For `Cc1ccc(NC(=O)c2c(NC(=O)Cc3ccccc3)sc3c2CCC3)cc1` the value was inactive: -10.2%. Consider `COc1ccc2cc(-c3nc(Cl)c4c5c(sc4n3)CCCC5)c(=O)oc2c1`, for which the “activity change, negative = inhibition” value is inactive: -6.35%.

In the case of `CN(C)c1ccc(-c2nc3cnccn3c2Nc2cccc(C(F)(F)F)c2)cc1`, the “activity change, negative = inhibition” value was inactive: -1.19%. Take `COc1ccc(NC(=O)Cn2c(=O)n(Cc3ccco3)c(=O)c3cc(OC)c(OC)cc32)cc1`: the “activity change, negative = inhibition” value was inactive: -4.84%.

On to `Cc1cc2c(cc1S(=O)(=O)CCC(=O)N1CCCC(C)C1)OCC(=O)N2` (configuration not stated), for which the “activity change, negative = inhibition” value is inactive: -13.6%.

Regarding `Cc1ccc(-n2ncc(C(=O)NCCN3CCOCC3)c2C2CCN(C(=O)OC(C)(C)C)CC2)c(C)c1`, the “activity change, negative = inhibition” value is inactive: -11%. With `COCCn1c(CCC(=O)Nc2ccc(C)c(Cl)c2)nc2cccnc21`, the “activity change, negative = inhibition” value was inactive: 10%. On to `Clc1ccc2nc(NCc3ccccc3)c3nncn3c2c1`, for which the “activity change, negative = inhibition” value is inactive: -9.73%. For `CC1CCC(NC(=O)c2ccc3c(c2)N(Cc2ccccc2)C(=O)c2ccccc2S3(=O)=O)CC1` (configuration not stated), the “activity change, negative = inhibition” value was inactive: 19.5%. With `COc1ccccc1CNC(=O)CCc1c(C)nc2c(c(C)nn2-c2ccc(C)c(C)c2)c1C`, the “activity change, negative = inhibition” value is inactive: -78.4%. As to `CC(C)(C)OC(=O)N1CCC(c2c(C(=O)NCc3ccccc3)cnn2-c2ccccc2)CC1`, the “activity change, negative = inhibition” value was inactive: -6.5%. `CCCCn1c(=N)c(S(=O)(=O)c2ccc(Cl)cc2)cc2c(=O)n3cccc(C)c3nc21`: the “activity change, negative = inhibition” value was inactive: -2.76%. For the compound `Cc1cccc(Nc2c(-c3cccs3)nc3nc(C)cc(C)n23)c1`, the “activity change, negative = inhibition” value is inactive: 31.5%.

As to `CCc1ccc(CNC(=O)c2cc3c(=O)n(CC)c4ccccc4c3s2)cc1`, the “activity change, negative = inhibition” value is inactive: -0.82%. Regarding `O=C(NC(=O)c1ccccc1)Nc1ccc(-n2nc(C(F)(F)F)cc2C(F)(F)F)cc1`, the “activity change, negative = inhibition” value was inactive: 76.1%. `COc1ccc(OC)c(NC(=O)Cn2c(=O)n(CC3CCCO3)c(=O)c3cc(OC)c(OC)cc32)c1` (configuration not stated): the “activity change, negative = inhibition” value is inactive: 1.9%. With `COc1ccc(NC(=O)CN(C)S(=O)(=O)c2ccc3c(c2)CCC(=O)N3)c(OC)c1`, the “activity change, negative = inhibition” value is inactive: -14.7%. As for `CCOc1ccccc1CNC(=O)CN1C(=O)CSc2ccc(S(=O)(=O)N3CCOCC3)cc21`, the “activity change, negative = inhibition” value was inactive: -9.8%.

As for `CCc1ccc(NC(=O)CSc2nc3c(sc4ccccc43)c(=O)n2CCCOC)cc1`, the “activity change, negative = inhibition” value is inactive: -4.43%. Then `CCOC(=O)CNc1nc2ccccc2n2c(C)nnc12`, with inactive: 11.8%; and `CCN1CCC[C@H]1CNC(=O)c1c(O)c(Cl)cc(Cl)c1OC`, with inactive: 11.2%. Turning to `CC(C)(C)CC(=O)OCC(=O)[C@@]1(O)CC[C@H]2[C@@H]3CCC4=CC(=O)C=C[C@]4(C)[C@H]3[C@@H](O)C[C@@]21C`, the “activity change, negative = inhibition” value is inactive: -17.5%. Take `O=[N+]([O-])c1ccc(S(=O)(=O)NCc2nc3cccnc3n2Cc2ccccc2Cl)cc1`: the “activity change, negative = inhibition” value is inactive: -18.9%.

In the case of `COc1ccc(C)cc1NC(=O)Cn1c(=O)nc(-c2ccccc2F)c2cc(Cl)ccc21`, the “activity change, negative = inhibition” value is inactive: -2.18%. On to `COC(=O)c1cc(NC(=O)C2CCCN(S(=O)(=O)c3c(C)n[nH]c3C)C2)cc(C(=O)OC)c1` (configuration not stated), for which the “activity change, negative = inhibition” value was inactive: -11.2%. On to `O=c1nc2c(-c3ccc(F)cc3Cl)n[nH]n2c2ccccc12`, for which the “activity change, negative = inhibition” value was inactive: 7.58%.

In the case of `COCc1cc(C)nc2sc(C(=O)Nc3ccc(OC(F)(F)F)cc3)c(N)c12`, the “activity change, negative = inhibition” value is inactive: -21%.

`Cc1c(C(=O)OCC2CCCCC2)[nH]c2c1C(=O)CC(c1ccc(F)cc1)C2` (configuration not stated): the “activity change, negative = inhibition” value was inactive: 5.9%. For `N#Cc1cccc(Nc2ncnc3c2cnn3-c2cccc(Cl)c2)c1`, the “activity change, negative = inhibition” value was inactive: 27%. For `O=C(CSc1nncn2c1cc1occc12)Nc1ccccc1C(F)(F)F`, the “activity change, negative = inhibition” value was inactive: -28.2%. As to `CCc1ccccc1NC(=O)CN(c1cccc(C)c1C)S(C)(=O)=O`, the “activity change, negative = inhibition” value was inactive: -15.6%.
